Experimental data from PubChem BioAssay AID488969 (Vanderbilt High Throughput Screening Facility, 2010).
The full ranking holds about 110,000 compounds; the median of “z-score” is about -0.1, and the highest 2% start at about 2. The list shows a part of the results. The source made the active and inactive calls.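 Rule for the calls: active = z-score in the third read window above 3 or below -3; inactive = the rest.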

Each compound was assayed against Metabotropic glutamate receptor 8 (Rattus norvegicus) (UniProt P70579) (assay: rat mGluR8 modulators via GIRK flux, primary screen, cell-based, thallium flux, HTS (AID 488969)). Settings: HEK293 rat mGluR8, GIRK (G protein-gated inwardly rectifying potassium channel) thallium flux, FluoZin2; at 10 µM; stronger effect = higher value; submaximal glutamate (EC20) added with thallium.
Chain of UniProt P70579 (P70579 whole entry, looked up): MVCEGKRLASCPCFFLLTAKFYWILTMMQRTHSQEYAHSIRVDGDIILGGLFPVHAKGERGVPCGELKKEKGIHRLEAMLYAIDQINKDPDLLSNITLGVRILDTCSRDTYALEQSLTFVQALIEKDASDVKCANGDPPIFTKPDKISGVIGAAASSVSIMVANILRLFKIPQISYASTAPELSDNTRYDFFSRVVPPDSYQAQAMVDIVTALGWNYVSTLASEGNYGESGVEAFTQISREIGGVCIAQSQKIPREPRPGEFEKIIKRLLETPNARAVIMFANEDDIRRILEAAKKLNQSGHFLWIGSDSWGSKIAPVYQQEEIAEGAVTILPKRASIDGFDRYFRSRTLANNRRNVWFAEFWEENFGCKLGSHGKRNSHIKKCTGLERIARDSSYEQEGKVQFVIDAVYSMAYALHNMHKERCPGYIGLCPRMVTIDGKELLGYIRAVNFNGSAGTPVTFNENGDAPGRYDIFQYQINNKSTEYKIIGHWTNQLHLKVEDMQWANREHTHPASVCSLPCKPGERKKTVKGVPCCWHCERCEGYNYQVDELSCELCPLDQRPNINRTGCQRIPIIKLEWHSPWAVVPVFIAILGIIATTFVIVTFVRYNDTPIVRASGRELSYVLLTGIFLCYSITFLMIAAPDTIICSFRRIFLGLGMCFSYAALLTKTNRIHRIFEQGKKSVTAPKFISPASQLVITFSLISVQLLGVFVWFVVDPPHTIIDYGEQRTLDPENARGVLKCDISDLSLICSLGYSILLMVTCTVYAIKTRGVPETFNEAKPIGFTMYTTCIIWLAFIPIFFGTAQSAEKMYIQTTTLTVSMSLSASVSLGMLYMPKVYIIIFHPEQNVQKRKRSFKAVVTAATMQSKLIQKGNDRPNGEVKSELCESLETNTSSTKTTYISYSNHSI

Row | Compound | z-score
1 | Cc1ccccc1NC(=O)C1CCCN(S(=O)(=O)c2cccc3cccnc23)C1 (configuration not stated) | -0.135
2 | COc1ccccc1CNC(=O)c1ccc(OCc2c(C)noc2C)c(OC)c1 | -0.41
3 | Clc1ccc(COn2c(-c3ccc(Cl)cc3)nc3ccccc32)cc1 | -0.0881
4 | CC1CC(C)CN(C(=O)Cn2c(=O)n(CCCCC(=O)NCc3ccco3)c(=O)c3ccccc32)C1 (configuration not stated) | -0.706
5 | COCCn1c(SCC(=O)Nc2cc(C(C)(C)C)nn2-c2ccccc2)nc2ccccc2c1=O | -0.146
6 | CCN(Cc1cc2cc(OC)ccc2[nH]c1=O)C(=O)c1ccncc1 | 0.126
7 | O=C(Oc1c(Cl)cc(Cl)c2ccccc12)N1CCCC1 | 0.469
8 | COC(=O)C1CCN(Cc2ccc(C)cc2)CC1 | -0.135
9 | Cc1ccc(CN2C(=O)CCC2C(=O)NCCN2CCOCC2)cc1 (configuration not stated) | 0.553
10 | COC(=O)c1ccccc1NC(=O)Cn1nc(C(F)(F)F)c2c1CCC2 | -0.437
11 | O=C1NC(c2ccc(Br)cc2)Nc2sc3c(c21)CCC3 (configuration not stated) | 0.88
12 | CN(C)/C=N/c1sc2c(c1C#N)CCC2 | 0.085
13 | Cc1ccccc1OCCn1cc(/C=C(\C#N)C(=O)NCc2ccco2)c2ccccc21 | 0.191
14 | CC(=O)c1ccc(NC(=O)CSCC(=O)Nc2ccc3ccccc3c2)cc1 | -0.558
15 | O=C(CN1CCCC1)Nc1ccc(NC(=O)Nc2ccccc2Cl)cc1 | 0.133
16 | Clc1ccc(/C=N/Nc2nnc(Cl)c3ccccc23)cc1 | 0.242
17 | OCCCN1CCN(CCCOc2ccccc2-c2ccccc2)CC1 | -0.686
18 | CC(C)CNC(=O)CCCc1ccccc1 | -0.288
19 | O=C(Nc1cnc2sccn2c1=O)c1ccc(Cl)cc1Cl | -0.557
20 | CCN(CC)CCNC(=O)c1ccc(Cl)c(S(=O)(=O)Nc2ccccc2OC)c1 | 0.323
21 | O=C(/C=C/c1c[nH]c2ccccc12)c1ccccc1 | -0.249
22 | Cc1ccc(C)c(NC(=O)CN(C)S(=O)(=O)c2ccc(F)cc2)c1 | -0.249
23 | CCC(Sc1nccn1C)C(=O)Nc1nnc(C)s1 (configuration not stated) | 0.19

Row | Compound | z-score
24 | O=C(Nn1c(-c2ccc(F)cc2)nc2ccccc2c1=O)C1CCCCC1 | -0.0877
25 | O=C(CN1C(=O)C2C3C=CC(C3)C2C1=O)N1CCc2ccccc2C1 (configuration not stated) | 0.165
26 | C=C(C)CNC(=S)Nc1nc2c(cc1C(=O)OCC)CCCC2 | active: 3.56
27 | O=C(CN1CCc2ccccc2C1)Nc1ccccc1N1CCCCCC1 | -0.0328
28 | CC1CCN(C(=O)c2cc3ccccc3c(=O)o2)CC1 | -0.113
29 | O=C1C=C(NCc2ccccc2)CCC1 | -0.0868
30 | COc1ccc(-n2nnnc2SCC#CCO)cc1 | 1.38
31 | C/C(=N\NC(=O)c1csc(C)c1C)c1ccc(Cl)s1 | active: 3.54
32 | O=C(CSc1ncnc2c1oc1ccccc12)Nc1ccccc1F | -0.443
33 | CC(C)CC(=O)c1c[nH]c(C(=O)NCc2cccs2)c1 | 0.0742
34 | FC(F)Oc1ccc(NC(=S)NCC2COc3ccccc3O2)cc1 (configuration not stated) | -0.143
35 | O=C(CC12CC3CC(CC(C3)C1)C2)NCC(=O)N1CCCC1 | 0.463
36 | O=C(COc1ccccc1)N1CCN(c2ccc([N+](=O)[O-])c(N3CCCCC3)c2)CC1 | -2.37
37 | CC1CN(S(=O)(=O)c2cccc(C(=O)OCc3cc(=O)oc4cc(O)ccc34)c2)CC(C)O1 (configuration not stated) | -0.0274
38 | CCCN1CCC(NC(=S)Nc2ccc(C(=O)OCC)cc2)CC1 | -0.26
39 | COc1ccc(C(=O)C2C(c3ccc(-c4ccccc4[N+](=O)[O-])o3)NC(=O)NC2(O)C(F)(F)F)cc1 (configuration not stated) | -2.8
40 | CCc1cccc(CC)c1N1C(=O)c2cc(N3CCOCC3)c([N+](=O)[O-])cc2C1=O | 0.0545
41 | CC(C)N(Cc1ccccc1)C(=O)c1cnc2n(c1=O)CCS2 | 0.707
42 | O=C(Nc1ccc(Cc2ccncc2)cc1)c1ccco1 | 0.429
43 | Cc1nnc(SCc2ccc(F)cc2Cl)s1 | -0.295
44 | CC(=O)C1C(c2ccc(F)cc2)NC(=O)NC1(O)C(F)(F)F (configuration not stated) | -0.0816
45 | Cc1ccc(NC(=O)CCSc2nnc(Cc3ccccc3)o2)cc1 | 0.339
46 | CC12CCC(C(=O)N3CCCCCC3)(OC1=O)C2(C)C (configuration not stated) | -0.477

Row | Compound | z-score
47 | CCC(OC(=O)c1ccco1)C(=O)NCc1ccco1 (configuration not stated) | 0.119
48 | O=C(NCCCn1ccnc1)c1cc(C(=O)C2CC2)c[nH]1 | -0.343
49 | COCCN1Cc2cccc(C(=O)Nc3cccc(OC)c3)c2C1=O | -0.444
50 | Cc1ccc2cc(C(c3nnnn3Cc3ccccc3)N3CCN(c4ccccc4)CC3)c(=O)[nH]c2c1 (configuration not stated) | 0.483
51 | Cc1ccc(C(=O)N[C@H](C(=O)OCC(=O)NC2CCS(=O)(=O)C2)C(C)C)cc1 (some centres not stated) | -0.0806
52 | CN(C)CCCNC(=O)c1cc2c3ccccc3n(C)c2s1 | 0.817
53 | Cc1c(Cl)ccc2c1NC(=O)[C@]21N[C@@H](Cc2ccccc2)[C@H]2C(=O)N(c3ccc(F)cc3)C(=O)[C@H]21 | -0.433
54 | Brc1ccc2nc(CSc3ncn[nH]3)cn2c1 | -0.0244
55 | Cn1c(SCc2nc(-c3ccc(Br)cc3)no2)nnc1-c1ccco1 | 0.101
56 | Cc1cc(Cl)c(OCCOCCN2CCCCC2)c(Br)c1 | 0.276
57 | C=CCNC(=O)c1onc(CSc2ccccc2CC)c1C(=O)O | -1.59
58 | CC(C)NC(=O)c1ccc(Sc2ccccc2)c([N+](=O)[O-])c1 | -0.477
59 | O=C1NC(=O)/C(=C\c2ccccc2OCc2ccc([N+](=O)[O-])cc2)N1 | -0.176
60 | CCCCCOc1ccc(CSC(=N)N)cc1[N+](=O)[O-] | 1.82
61 | Cc1cc(C(=O)N/N=C/c2ccc(-c3ccccc3Cl)o2)n[nH]1 | -0.496
62 | CN1CCN(C(=O)c2ccc(CS(=O)(=O)c3c(Cl)cccc3Cl)o2)CC1 | 0.504
63 | Cc1ccc(Cn2c(NCCc3ccccc3)nc3c2c(=O)n(C)c(=O)n3C)cc1 | -0.251
64 | C=CCn1c(SCC(=O)NC(C)(C)C)nnc1-c1ccccc1O | -0.227
65 | O=C(Nc1cccnc1)C1CC(c2ccc(Cl)c(Cl)c2)=NO1 (configuration not stated) | -0.465
66 | COC(=O)c1cc(=O)nc2sc(-c3ccc(F)cc3)nn12 | -0.167
67 | O=C(Cn1nc(-c2ccc(N3CCOCC3)c([N+](=O)[O-])c2)c2ccccc2c1=O)N1CCCCC1 | -0.108
68 | COc1ccc(C2C(C(=O)NCCN3CCOCC3)c3ccccc3C(=O)N2C2CCCCC2)cc1 (configuration not stated) | -0.415
69 | Cc1ncc(CO)c(/C=N/N=C/c2ccccc2O)c1O | -0.291

Row | Compound | z-score
70 | Cc1ccc(C)c(-n2ccnc2SCC(=O)O)c1 | -0.0351
71 | Cc1cccc2cc(CN(CCCO)C(=O)Nc3cccc(Cl)c3)c(=O)[nH]c12 | 0.85
72 | Cc1ccc(/C(N)=N/OC(=O)Cc2cccs2)cc1 | 0.139
73 | Cc1cc(OCCN2CCCCC2)nc2ccccc12 | 0.234
74 | CCC(c1nnnn1Cc1cccs1)N1CCN(C2CCCC2)CC1 (configuration not stated) | -0.61
75 | Fc1ccc(CSc2nncn2NCc2ccc3c(c2)OCO3)cc1 | -0.101
76 | Cc1ccccc1N1CCN(C(=O)C2CCCCC2)CC1 | 0.284
77 | CC1(C)Cc2c(sc3nc4n(c(=N)c23)CCCCC4)CO1 | -0.582
78 | CCOc1ccc(NC2=C(Cl)C(=O)N(C3CCCCC3)C2=O)cc1 | -0.288
79 | Cc1ccc(C(C(=O)NC2CCCCC2)N(Cc2ccco2)C(=O)C2COc3ccccc3O2)o1 (configuration not stated) | 1.12
80 | Cc1cccc(NC(=O)CSc2nnc(-c3ccco3)c(-c3ccco3)n2)c1C | -0.415
81 | CN(C)S(=O)(=O)c1ccc(C(=O)NCCOc2ccc(F)cc2)cc1 | 0.0591
82 | OC(COc1ccc(Cl)cc1)CN1CCCCC1 (configuration not stated) | 0.433
83 | CCC(Sc1nc(N)cc(N)n1)C(=O)O (configuration not stated) | -0.198
84 | O=C(NNC(=O)c1ccccc1Br)c1ccc(Cl)c(Cl)c1 | 0.926
85 | CC1CCN(S(=O)(=O)c2ccc(NC(=O)CN3CCN(C)CC3)cc2)CC1 | 0.193
86 | CN1/C(=C\C(=S)NC(=O)c2ccc([N+](=O)[O-])cc2)C(C)(C)c2ccccc21 | 0.213
87 | S=c1[nH]nc(-c2cccnc2)n1-c1ccccc1 | 0.46
88 | Cc1ccc(Cn2nnc3c(=O)[nH]c(C4CCN(S(=O)(=O)c5ccc(C)cc5)CC4)nc32)cc1 | 0.0444
89 | CCCCCSc1nc2c(c(=O)[nH]c(=O)n2C)n1C(C)C | -0.464
90 | O=C(Nc1cccc(Cl)c1)N(CCCN1CCOCC1)Cc1ccccc1F | -0.357
91 | O=C(Nc1cc(Sc2ccccn2)cc([N+](=O)[O-])c1)c1ccc(Cl)cc1 | -0.325
92 | CCOC(=O)CSc1n[nH]c(-c2ccco2)n1 | -0.251

Row | Compound | z-score
93 | Cc1ccc(N=Cc2c(O)n(C)c(=O)n(C)c2=O)nc1 | -0.0916
94 | CCCn1c(=O)c(C(=O)NNS(=O)(=O)c2ccc(Cl)cc2)c(O)c2ccccc21 | 0.127
95 | COc1ccc(/C=N/NC(=O)C(=O)N2CCN(c3ccccc3OC)CC2)cc1 | -0.0857
96 | C=CCc1cccc(/C=N/NC(=O)CNc2ccccc2)c1O | 0.231
97 | O=C(CN1N=C(c2ccccc2)CCC1=O)NCc1ccco1 | 1.01
98 | Cc1ccc(C(NC(=O)NC(C)c2ccccc2)C(Cl)(Cl)Cl)cc1F (configuration not stated) | -0.523
99 | CN(CC(=O)Nc1cccc2ccccc12)C(=O)/C=C/c1cccs1 | -0.0222
100 | O=C(N/N=C1/CCCc2ccccc21)C(c1ccccc1)c1ccccc1 | -0.174
101 | CCC1CCCCN1C(=S)NCc1ccccc1 (configuration not stated) | -0.193
102 | COc1ccc(Nc2nc(C)cc(C)c2C(N)=O)c(OC)c1 | -0.0437
103 | CSC1=NCCN1C(=O)COc1ccccc1 | -0.13
104 | Cc1ccc(-c2noc(CCC(=O)NCCc3ccccc3Cl)n2)cc1 | -0.158
105 | Cc1onc(-c2ccccc2Cl)c1C(=O)N1CCN(c2ccccc2)CC1 | 0.279
106 | Cc1ccc(-n2c(=S)[nH]c3nc4c(cc3c2=O)COC(C)(C)C4)cc1 | -0.116
107 | Cc1nc(-c2cccc(-c3noc(C)n3)c2)no1 | -0.602
108 | COC(=O)C1CCN(C(c2ccc(OC)c(OC)c2)c2sc3nc(C)nn3c2O)CC1 (configuration not stated) | -0.0312
109 | CCc1ccc(CCC(=O)Nc2sc(C)c(C)c2C(=O)OC)o1 | 0.226
110 | CN(C)S(=O)(=O)N1CCN(C(=O)c2cccs2)CC1 | 0.0197
111 | CCOc1ccc(S(=O)(=O)Nc2ccccc2C(=O)NCC2CCCO2)cc1 (configuration not stated) | -0.197
112 | Cc1cccc(NC(=O)c2sc3nc4c(c(-c5ccco5)c3c2N)CCC4)c1 | 0.0269
